# The supplement of paper PMC12067230
# This is a noisy data set.
# Assay: amyloid nucleation score relative to library mode (yeast Sup35 reporter selection) (log enrichment difference); higher = more amyloid nucleation; sequences are the first 22 residues of the Bri2 peptide extended by up to 12 random residues
# Settings: random library (experiment): 1;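 active = nucleation score significantly above 0 at FDR 0.05; inactive = not significantly above 0 or absent from output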
# 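Note: [psi-pin-] Saccharomyces cerevisiae expressing SupN fusions, induced by 100 µM Cu2SO4, selected 7 d at 30 °C without adenine and uracil, scored by deep sequencing of output versus input.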
row,Sequence,amyloid nucleation score
1,EASNCFAIRHFENKFAVETLICLVV,inactive
2,EASNCFAIRHFENKFAVETLICLVVAP,inactive
3,EASNCFAIRHFENKFAVETLICLVVGSCGKNSFP,4.47
4,EASNCFAIRHFENKFAVETLICLVVRYWNFKLTE,-0.295
5,EASNCFAIRHFENKFAVETLICLVVSLLHASVRS,inactive
6,EASNCFAIRHFENKFAVETLICLVVVQRSETWLR,inactive
7,EASNCFAIRHFENKFAVETLICLVVYRGVEAVRL,2.69
8,EASNCFAIRHFENKFAVETLICLVVYRLRDWGKG,inactive
9,EASNCFAIRHFENKFAVETLICLVWCARGVRAWE,inactive
10,EASNCFAIRHFENKFAVETLICLVWNGVWKAREA,inactive
11,EASNCFAIRHFENKFAVETLICLVWSSWGTLATR,inactive
12,EASNCFAIRHFENKFAVETLICLVWYVACSRGYV,inactive
13,EASNCFAIRHFENKFAVETLICLVYKWAWKGGHV,-0.0755
14,EASNCFAIRHFENKFAVETLICLVYS,inactive
15,EASNCFAIRHFENKFAVETLICLVYSRY,inactive
16,EASNCFAIRHFENKFAVETLICLW,8.26
17,EASNCFAIRHFENKFAVETLICLWAGVPLWACVC,inactive
18,EASNCFAIRHFENKFAVETLICLWALANE,inactive
19,EASNCFAIRHFENKFAVETLICLWCLHRMRILHA,inactive
20,EASNCFAIRHFENKFAVETLICLWCPPMAGLCWR,4.96

row,Sequence,amyloid nucleation score
1,EASNCFAIRHFENKFAVETLICLWDCRG,0.565
2,EASNCFAIRHFENKFAVETLICLWGKRGWQRQSP,inactive
3,EASNCFAIRHFENKFAVETLICLWHS,5.34
4,EASNCFAIRHFENKFAVETLICLWISRLRSEGFQ,inactive
5,EASNCFAIRHFENKFAVETLICLWKIGSIRWDEW,inactive
6,EASNCFAIRHFENKFAVETLICLWKLP,inactive
7,EASNCFAIRHFENKFAVETLICLWKRHPFCPSFY,inactive
8,EASNCFAIRHFENKFAVETLICLWKRWSMGNGRR,inactive
9,EASNCFAIRHFENKFAVETLICLWKSGSQHVFVM,0.498
10,EASNCFAIRHFENKFAVETLICLWKTVRQQCRYT,inactive
11,EASNCFAIRHFENKFAVETLICLWKVGGGMSLAW,-0.195
12,EASNCFAIRHFENKFAVETLICLWKWRGKGTAEG,0.335
13,EASNCFAIRHFENKFAVETLICLWLAVVSSSMGE,inactive
14,EASNCFAIRHFENKFAVETLICLWLCVMSVGCNR,3.75
15,EASNCFAIRHFENKFAVETLICLWRCNGIFANRV,inactive
16,EASNCFAIRHFENKFAVETLICLWSAERKASETA,inactive
17,EASNCFAIRHFENKFAVETLICLWSWPRPFERPE,1.12
18,EASNCFAIRHFENKFAVETLICLWT,1.82
19,EASNCFAIRHFENKFAVETLICLWTGVRVPLSSW,inactive
20,EASNCFAIRHFENKFAVETLICLWVKAVSQWYAP,inactive

row,Sequence,amyloid nucleation score
1,EASNCFAIRHFENKFAVETLICLWVSP,inactive
2,EASNCFAIRHFENKFAVETLICLWVVWVVHVKPG,inactive
3,EASNCFAIRHFENKFAVETLICLWW,4.2
4,EASNCFAIRHFENKFAVETLICLWWVRLVDDFLW,inactive
5,EASNCFAIRHFENKFAVETLICLYARQKWPWLPK,inactive
6,EASNCFAIRHFENKFAVETLICLYASLGGPEAWQ,7.79
7,EASNCFAIRHFENKFAVETLICLYCAHSEKRVLE,0.413
8,EASNCFAIRHFENKFAVETLICLYCGNPFVWRDG,8.62
9,EASNCFAIRHFENKFAVETLICLYCVRNAQNSRS,4.79
10,EASNCFAIRHFENKFAVETLICLYDDSV,inactive
11,EASNCFAIRHFENKFAVETLICLYEWMGTLHRR,inactive
12,EASNCFAIRHFENKFAVETLICLYFGHGLLAMSQ,inactive
13,EASNCFAIRHFENKFAVETLICLYFSFD,2.12
14,EASNCFAIRHFENKFAVETLICLYGIGNVKEGCS,5.59
15,EASNCFAIRHFENKFAVETLICLYGLSSRVVYWS,inactive
16,EASNCFAIRHFENKFAVETLICLYIFPHHLGPLR,inactive
17,EASNCFAIRHFENKFAVETLICLYKQNHWKSYRT,3.09
18,EASNCFAIRHFENKFAVETLICLYKRWETVRSAS,inactive

# Same assay, conditions: random library (experiment): 2
row,Sequence,amyloid nucleation score
1,EASNCFAIRHFENKFAVETLICLVTSSNGYVI,0.693
2,EASNCFAIRHFENKFAVETLICLVVCFIMWGVTW,1.58
3,EASNCFAIRHFENKFAVETLICLVVMNNSMDILL,inactive
4,EASNCFAIRHFENKFAVETLICLVVNGYTQWCKS,1.55
5,EASNCFAIRHFENKFAVETLICLVWKFYYYKLFL,inactive
6,EASNCFAIRHFENKFAVETLICLVWKNLMPCSRM,inactive
7,EASNCFAIRHFENKFAVETLICLVWRYQRCRNRV,inactive
8,EASNCFAIRHFENKFAVETLICLVWTESIRVGSV,inactive
9,EASNCFAIRHFENKFAVETLICLVYGNFFRCSMV,inactive
10,EASNCFAIRHFENKFAVETLICLVYGYFSQVKNG,inactive
11,EASNCFAIRHFENKFAVETLICLVYLIRQHVWSM,inactive
12,EASNCFAIRHFENKFAVETLICLVYRGQWMTGAG,inactive
13,EASNCFAIRHFENKFAVETLICLVYVCSVVVSKW,inactive
14,EASNCFAIRHFENKFAVETLICLVYYG,-0.0677
15,EASNCFAIRHFENKFAVETLICLWCCISRVCCPS,2.05
16,EASNCFAIRHFENKFAVETLICLWCTDSHSGHLL,8.28
17,EASNCFAIRHFENKFAVETLICLWGGNILRIAMS,inactive
18,EASNCFAIRHFENKFAVETLICLWIGSKQTRDIK,inactive
19,EASNCFAIRHFENKFAVETLICLWNVKARLVAW,inactive

row,Sequence,amyloid nucleation score
1,EASNCFAIRHFENKFAVETLICLWPYTKWIHCFF,inactive
2,EASNCFAIRHFENKFAVETLICLWQKLVTIHL,inactive
3,EASNCFAIRHFENKFAVETLICLWTLFLSNKSRS,inactive
4,EASNCFAIRHFENKFAVETLICLWTPMDDRRYSL,4.75
5,EASNCFAIRHFENKFAVETLICLWYCARPRPCRG,-0.344
6,EASNCFAIRHFENKFAVETLICLWYVWTGIYREC,inactive
7,EASNCFAIRHFENKFAVETLICLY,inactive
8,EASNCFAIRHFENKFAVETLICLYAAVMSVFTSL,-0.278
9,EASNCFAIRHFENKFAVETLICLYCRVSARSGRG,-0.351
10,EASNCFAIRHFENKFAVETLICLYCTCY,6.46
11,EASNCFAIRHFENKFAVETLICLYDIA,inactive
12,EASNCFAIRHFENKFAVETLICLYFRFCSVRSNS,inactive
13,EASNCFAIRHFENKFAVETLICLYFTSTR,inactive
14,EASNCFAIRHFENKFAVETLICLYG,inactive
15,EASNCFAIRHFENKFAVETLICLYHCDKSSFRSM,4.29
16,EASNCFAIRHFENKFAVETLICLYIVLRRYVVVL,inactive
17,EASNCFAIRHFENKFAVETLICLYLLIDAGLVFC,inactive
18,EASNCFAIRHFENKFAVETLICLYLRIKKVNLHG,inactive

# Same assay, conditions: random library (experiment): 3
row,Sequence,amyloid nucleation score
1,EASNCFAIRHFENKFAVETLICLVTRCGQRLAWG,inactive
2,EASNCFAIRHFENKFAVETLICLVVDKTARLAGE,5.44
3,EASNCFAIRHFENKFAVETLICLVVETRICPGRV,inactive
4,EASNCFAIRHFENKFAVETLICLVVNVSHRGQGM,2.62
5,EASNCFAIRHFENKFAVETLICLVVS,inactive
6,EASNCFAIRHFENKFAVETLICLVVSGTRRESGA,2.65
7,EASNCFAIRHFENKFAVETLICLVVYCGLTVEFR,inactive
8,EASNCFAIRHFENKFAVETLICLVWCYYTCTLSV,inactive
9,EASNCFAIRHFENKFAVETLICLVWV,inactive
10,EASNCFAIRHFENKFAVETLICLVYLRKWPTDDG,inactive
11,EASNCFAIRHFENKFAVETLICLVYSLRTGGRLE,inactive
12,EASNCFAIRHFENKFAVETLICLWCFDG,7.12
13,EASNCFAIRHFENKFAVETLICLWCNYTVCRLVG,0.232
14,EASNCFAIRHFENKFAVETLICLWSGQELTAPVV,inactive
15,EASNCFAIRHFENKFAVETLICLWSH,1.49
16,EASNCFAIRHFENKFAVETLICLWVFVGTAFMLG,inactive
17,EASNCFAIRHFENKFAVETLICLWVKMNRAGARA,inactive
18,EASNCFAIRHFENKFAVETLICLWVRSLWMRPDA,inactive
19,EASNCFAIRHFENKFAVETLICLWWVGPGGVWMH,inactive
20,EASNCFAIRHFENKFAVETLICLWWWSVQEGSLG,0.566
21,EASNCFAIRHFENKFAVETLICLYCGACCQCKNR,8.79
22,EASNCFAIRHFENKFAVETLICLYCRVKGAPGVA,inactive
23,EASNCFAIRHFENKFAVETLICLYGRLDTEWWVR,inactive
24,EASNCFAIRHFENKFAVETLICLYHHGSFRLLPQ,inactive
